Measured values from PubChem BioAssay AID588855 (National Center for Advancing Translational Sciences (NCATS), 2011).
Among all 410,000 compounds or so, about 5,000 (1.2%) were called active. Inconclusive results, whose numbers are uncertain, are shown with a selection of clear calls. Calls come from the whole dose curve; as a rule, active = well fitted inhibition curve with a large enough effect; inconclusive = small, poorly fitted or top-dose-only effect; inactive = no such curve, though single readings can be large or run the other way. A potency beside an inconclusive call is a rough fit, not a confirmed value.

Experiment: qHTS for Inhibitors of TGF-b; note: nearly all actives have a fitted effect of over 65% in size
Details: HepG2 CAGA-GFP TGF-b/SMAD3 reporter, GFP fluorescence, 18 h, TGF-beta stimulated, 500 pg/mL final; series mostly up to 46.1 µM
In short: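 Read-out: total well GFP (ex488/em500-530) summed from mean per-cell fluorescence. Cells: HEPG2 CAGA-GFP, 1% FBS DMEM, 18 h at 37 degrees C with 500 pg/mL final TGF-beta. Unstimulated wells served as the full-inhibition control; stimulated DMSO wells = 0%.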
Potency is the fitted concentration of half-maximal effect; tags give direction and shape of the fitted curve.

**Q.** For `O=C(O)CCS(=O)(=O)c1nc(-c2cccs2)cc(C(F)(F)F)n1`, which Potency is on record?
**A.** inconclusive: 35.5 µM [inhibitor, single point]

**Q.** With `Cc1cc(C)n(S(=O)(=O)c2cccc([N+](=O)[O-])c2)n1` as the compound, how does the Potency read?
**A.** inconclusive: 12.6 µM [inhibitor, single point]

**Q.** Which Potency does the source give for `CCn1cc(-c2cc(C(=O)O)c3ccccc3n2)c(C)n1` here?
**A.** inactive

**Q.** Which Potency does the source give for `CCc1ccc(CN(Cc2cn[nH]c2-c2ccc(OC)cc2)C(=O)Nc2ccc(Br)cc2)cc1` here?
**A.** active: 7.94 µM

**Q.** Which Potency does the source give for `O=S(=O)(Cc1cc(Cl)nc(-c2ccccc2)n1)c1ccccc1` here?
**A.** inconclusive: 35.5 µM [inhibitor, single point]

**Q.** With `CCN1CCN(S(=O)(=O)c2cc(OC)ccc2OC)CC1` as the compound, how does the Potency read?
**A.** inactive

**Q.** With `CC[C@]12C(=O)N(C)C[C@H]([C@@H]3C(=O)N(Cc4ccccc4)C(=O)[C@@H]31)N2C(=O)c1ccc(C(C)(C)C)cc1` as the compound, how does the Potency read?
**A.** inconclusive: 35.5 µM [inhibitor, single point]

**Q.** For `CCN(CC)C(=O)CSc1nc2cc3c(cc2c(=O)n1CCCC(=O)NCc1ccc(OC)cc1)OCO3`, which Potency is on record?
**A.** inactive

**Q.** For `O=C(NCc1ccc(OC(F)(F)F)cc1)c1cc(-c2ccccc2)nn1CC1CC(c2cccnc2)=NO1` (stereo not drawn), which Potency is on record?
**A.** inconclusive: 20 µM [inhibitor, single point]

**Q.** With `Cc1ccc(/C=N/NC(=O)c2cc(-c3ccncc3)nc3ccccc23)o1` as the compound, how does the Potency read?
**A.** inconclusive: 6.31 µM [inhibitor, full curve, poor fit]

**Q.** Which Potency does the source give for `Cc1cc(S(=O)(=O)Nc2ccc(O)c(Sc3nc4ccccc4s3)c2)ccc1Cl` here?
**A.** inconclusive: 20 µM [inhibitor, single point]

**Q.** For `COc1ccc(-c2ccc3oc(-c4ccc(OC)cc4)c(C#CCO)c3c2)cc1`, which Potency is on record?
**A.** inconclusive: 14.1 µM [inhibitor, single point]

**Q.** With `CCOc1ccc(-c2nnc(SCC(=O)Nc3cc(C)ccc3OC)o2)cc1` as the compound, how does the Potency read?
**A.** inactive

**Q.** With `Cc1ccc2nc(C)c3c(c2c1)OC(C(C)(Cl)Br)C3` (stereo not drawn) as the compound, how does the Potency read?
**A.** inconclusive: 12.6 µM [inhibitor, single point]

**Q.** For `Nc1ccn(Cc2ccccc2)n1`, which Potency is on record?
**A.** inactive

**Q.** With `CS(=O)(=O)/C(C#N)=C/c1cccn1S(=O)(=O)c1ccc([N+](=O)[O-])cc1` as the compound, how does the Potency read?
**A.** inconclusive: 17.8 µM [inhibitor, single point]

**Q.** For `CC(C)c1ccc(NC(=O)Cn2c3ncccc3c(=O)n2-c2ccccc2)cc1`, which Potency is on record?
**A.** inconclusive: 0.112 µM [inhibitor, full curve, poor fit]

**Q.** Which Potency does the source give for `CC(Nc1nc(N2CCCCC2)nc2ccccc12)c1ccccc1` (stereo not drawn) here?
**A.** inconclusive: 15.8 µM [inhibitor, partial curve, poor fit]
